Source: PubChem BioAssay AID488969 (Vanderbilt High Throughput Screening Facility, 2010)
The full ranking holds about 110,000 compounds; the median of “z-score” is about -0.1, and the highest 2% start at about 2. The list shows a part of the results. Activity calls are given as the source filed them.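 The calls were made as follows: active = z-score in the third read window above 3 or below -3; inactive = the rest.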

These molecules were tested against Metabotropic glutamate receptor 8 (Rattus norvegicus) (UniProt P70579) (assay: mGluR8 Gi/Go-coupled signaling modulation – cell-based, rat, thallium flux, HTS, primary screen (AID 488969)). Settings: HEK293 rat mGluR8, GIRK (G protein-gated inwardly rectifying potassium channel) thallium flux, FluoZin2; at 10 µM; stronger effect = higher value; submaximal glutamate (EC20) added with thallium.
UniProt P70579, sequence (P70579 whole entry, looked up): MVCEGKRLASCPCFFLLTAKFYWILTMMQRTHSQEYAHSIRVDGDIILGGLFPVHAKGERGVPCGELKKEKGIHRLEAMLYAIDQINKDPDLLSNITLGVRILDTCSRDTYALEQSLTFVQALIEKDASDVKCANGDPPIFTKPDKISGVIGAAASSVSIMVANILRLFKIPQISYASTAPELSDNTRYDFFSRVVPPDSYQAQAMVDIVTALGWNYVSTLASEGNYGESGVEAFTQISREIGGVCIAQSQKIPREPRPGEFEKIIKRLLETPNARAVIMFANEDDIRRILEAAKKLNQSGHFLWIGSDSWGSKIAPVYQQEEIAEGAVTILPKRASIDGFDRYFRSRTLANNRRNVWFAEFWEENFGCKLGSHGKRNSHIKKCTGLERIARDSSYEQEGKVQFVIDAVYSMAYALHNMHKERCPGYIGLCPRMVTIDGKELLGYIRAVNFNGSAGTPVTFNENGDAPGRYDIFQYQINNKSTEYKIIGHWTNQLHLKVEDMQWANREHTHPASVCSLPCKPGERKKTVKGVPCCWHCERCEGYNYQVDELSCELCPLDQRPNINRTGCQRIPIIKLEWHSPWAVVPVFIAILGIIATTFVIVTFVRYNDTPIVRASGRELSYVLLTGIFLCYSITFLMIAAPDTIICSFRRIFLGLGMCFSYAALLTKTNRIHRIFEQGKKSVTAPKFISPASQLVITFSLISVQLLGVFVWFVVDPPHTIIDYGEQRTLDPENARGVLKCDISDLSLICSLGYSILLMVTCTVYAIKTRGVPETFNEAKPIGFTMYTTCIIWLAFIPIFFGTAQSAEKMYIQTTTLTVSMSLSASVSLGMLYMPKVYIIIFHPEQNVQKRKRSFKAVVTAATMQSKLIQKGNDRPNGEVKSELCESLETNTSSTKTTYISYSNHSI

| Structure (SMILES) | z-score |
| --- | --- |
| CCC1Oc2ccccc2N(CC(=O)Nc2ccc3c(c2)OCCO3)C1=O (centres undefined) | 0.33 |
| Cc1ccccc1C(=O)NC(C)C(c1cccs1)N1CCOCC1 (centres undefined) | 0.427 |
| CCSc1nnc(-c2cc3c(s2)-c2ccccc2CC3)o1 | 0.000914 |
| COc1ccc(C2C(C(=O)N3CCN(c4ccccc4F)CC3)c3ccccc3C(=O)N2C)cc1 (centres undefined) | -0.244 |
| CC(=O)c1cc(Cc2csc(C(C)=O)c2)cs1 | -0.0432 |
| Cc1ccc(N2CCN(CCCN3C(=O)C4CCCN4C3=O)CC2)cc1 (centres undefined) | -0.337 |
| CC1CN(c2cc(=O)n(Cc3ccc(F)cc3)c(=O)[nH]2)CC(C)O1 (centres undefined) | 0.061 |
| CCN(CC)C(=O)Cn1cnc([N+](=O)[O-])n1 | 0.255 |
| Cc1occc1C(=O)Nc1nn[nH]n1 | 0.196 |
| CN(C)Cc1nc2ccccc2c(=O)n1Cc1nc(-c2cc3ccccc3o2)cs1 | -0.69 |
| Cc1cc(C(=O)Nc2sc3c(c2C#N)CCCCC3)cs1 | -0.0794 |
| CC1=C(C(=O)Nc2ccccc2)C2(CCCCC2)C(C#N)=C(SCC(N)=O)N1 | -0.0722 |
| COc1ccc(CCNC(=O)Cc2cccs2)cc1 | -0.268 |
| CC(=O)N(C)c1ccc(NC(=O)/C=C/c2ccccc2Cl)cc1 | 0.368 |
| Cc1ccc(C(=O)NC(=S)Nn2cnnc2)cc1 | -0.262 |
| CN(C)c1ccc(/C=N/NC(=O)CN(c2cccc(Cl)c2)S(C)(=O)=O)cc1Br | -0.0306 |
| Cc1ccc(-n2ccnc2SCC(=O)N(CC(C)C)C2CCS(=O)(=O)C2)c(C)c1 (centres undefined) | -1.54 |
| COc1ccc(-c2cc(C(=O)Nc3sc4c(c3C#N)CCCC4)c3ccccc3n2)cc1OC | 0.0122 |
| Cc1cccc2nc(CSc3nnc4ccccn34)cn12 | 0.146 |
| CCOC(=O)/C(C(=O)Nc1ccc(Cl)cc1Cl)=C1/NC(C)(C)Cc2ccccc21 | -0.0362 |
| Cc1ccc(C)c2c1cc(C)c1nnc(SCC(=O)N3CCCc4ccccc43)n12 | 0.144 |
| Cc1nn(-c2ccccn2)c2c1C(c1ccccn1)C1=C(CCCC1=O)N2 (centres undefined) | -0.189 |
| COCCOC(=O)c1c(C)oc2ccc(OCC=C(C)C)cc12 | 1.29 |

| Structure (SMILES) | z-score |
| --- | --- |
| O=C(CN1CCOCC1)Nc1nc(-c2ccc3c(c2)CCN3S(=O)(=O)c2ccccc2)cs1 | 0.727 |
| CCOCCn1c(N2CCN(c3ccc(OC)cc3)CC2)nc2c1c(=O)n(C)c(=O)n2C | -0.306 |
| Cc1ccc(NC(=O)C(=O)N2CCCC2)cc1Cl | -0.336 |
| CC(=O)c1cc2c(cc1NC(=O)CSc1nc3ccccc3[nH]1)OCO2 | 0.371 |
| CC(C)(CN1CCCCC1)NS(=O)(=O)c1ccc(Cl)cc1 | 0.0698 |
| CCOC(=O)c1ccc(NC(=O)C2CCCN(S(=O)(=O)c3ccc(F)cc3)C2)cc1 (centres undefined) | -0.355 |
| CCOC(=O)C1C(=O)CC(C)(O)C(C(=O)OCC)C1c1ccc(Br)cc1 (centres undefined) | -0.013 |
| Cc1ccc(C(=O)OCC(=O)Nc2ccc3c(c2)OCO3)cc1S(=O)(=O)N1CCOCC1 | -0.367 |
| O=C(CCCC(=O)OCC(=O)c1ccc(Cl)cc1Cl)Nc1cc(C(F)(F)F)ccc1Cl | 0.227 |
| CCS(=O)(=O)N1CCCC(C(=O)NCc2ccccc2Cl)C1 (centres undefined) | 0.358 |
| O=C(c1cc2sccc2n1Cc1ccc(F)cc1)N1CCCc2ccccc21 | 0.225 |
| CC12C(=O)N(n3cnnc3)C(=O)C1C1C=CC2C1 (centres undefined) | -0.265 |
| COC(=O)CN(C#N)c1nc(C)cc(C)n1 | 0.691 |
| Cc1c(C(=O)NCCSCc2ccccc2Cl)cccc1[N+](=O)[O-] | -0.314 |
| CC(=O)NC1=NN(C(C)=O)C(c2ccc(C(C)C)cc2)S1 (centres undefined) | -0.374 |
| O=C(CN(Cc1ccco1)C(=O)CNS(=O)(=O)c1ccccc1)NCc1ccccc1 | -0.989 |
| COc1cc(NC(=O)COC(=O)CSc2cc(C)ccc2C)c(C)cc1[N+](=O)[O-] | -0.224 |
| O=C(O)C1C2C=CC(C3CC23)C1C(=O)NCCc1ccccc1 (centres undefined) | 0.335 |
| Cc1ccc(S(=O)(=O)N2CCCCC2)cc1NC(=O)c1ccc2ccccc2n1 | -0.156 |
| O=C(Nc1cccc(F)c1)C1CC(=O)N(c2ccc(Cl)cc2)C1 (centres undefined) | 0.61 |
| CCCCNC(=O)NNC(=O)c1ccco1 | -0.188 |
| Cn1c(SCC(=O)NCc2ccco2)nnc1-c1ccccc1 | 0.739 |
| CCCCN(CCCC)S(=O)(=O)c1ccc(NC(=O)Cc2cccs2)cc1 | -0.216 |

| Structure (SMILES) | z-score |
| --- | --- |
| CCOC(=O)C(=O)/C(C#N)=C/Nc1ccc(F)cc1 | 0.16 |
| Cc1ccccc1N1C(=O)C(Cl)=C(N2CCCCCC2)C1=O | -1.3 |
| Cc1cccc(N(CC(=O)N/N=C/c2ccc(OCC(=O)NCc3ccco3)cc2)S(C)(=O)=O)c1C | -1.22 |
| Cc1cccc(NC(=O)Cn2c(=O)n(Cc3ccco3)c(=N)c3c4c(sc32)COC(C)(C)C4)c1 | -1.55 |
| CN(C)/C=C/C(=O)/C=C/c1cn(-c2ncc(C(F)(F)F)cc2Cl)c2ccccc12 | active: 5.57 |
| COC(=O)Nc1cc(C(F)(F)F)ccc1N1CCN(c2ccccc2)CC1 | 0.369 |
| O=c1[nH]c(CN2CCN(c3ccccc3)CC2)nc2scc(-c3ccccc3)c12 | 1.24 |
| c1ccc(CN2CCOCC2)cc1 | 0.378 |
| Cc1cc(C2C(C#N)=C(N)SC(N)=C2C#N)c(C)s1 | -1.13 |
| S=C(Nc1ccccc1)Nc1nc2ccccc2n1CCOc1ccc(Br)cc1 | 1.24 |
| CCS(=O)(=O)n1nc(-c2ccccc2)nc1SC | -0.173 |
| COc1cccc(NC(=S)NNC(=O)C(C)n2nc(C)c([N+](=O)[O-])c2C)c1 (centres undefined) | -0.128 |
| Cc1cccc(NC(=O)c2oc3c(c2C)C(=O)CC(C)(C)C3)n1 | -0.491 |
| COc1ccc(-c2cn3c(C)c(C(=O)Nc4ccncc4)sc3n2)cc1 | 0.443 |
| Cc1ccc(N2CC(C(=O)NCc3ccc4c(c3)OCO4)CC2=O)cc1C (centres undefined) | 0.0044 |
| COc1ccc(C(=O)/C=C/c2cccs2)c(OC(=O)c2cccc([N+](=O)[O-])c2)c1 | 0.158 |
| Cc1cc(C)nc(SCC(=O)c2ccc3c(c2)OCCO3)n1 | -0.899 |
| CCN(CC)C(=O)C(C)N(C#N)c1nc(C)cc(C)n1 (centres undefined) | -0.341 |
| COc1ccc(N(CC(=O)O)S(C)(=O)=O)cc1OC | -0.393 |
| COc1cccc(/C=C/C(=O)OCC(=O)Nc2ccc(S(=O)(=O)N3CCCC3)cc2)c1 | -0.238 |
| O=c1c(C=NCCCn2ccnc2)c(-c2ccccc2)[nH]n1-c1nc2ccccc2s1 | -1.01 |
| COC(=O)c1ccccc1NC(=O)CNc1cc(OC)c(OC)cc1C | -0.212 |
| CCC(C)NC(=O)c1cc(CC(C)C)on1 (centres undefined) | 0.203 |
